{"source": "paper PMC7819943", "about": "“Rice protein-binding microarrays: a tool to detect cis-acting elements near promoter regions in rice”", "note": "Some of the results follow."}
{"molecular_target": "T1, OsWOX13 (Oryza sativa, UniProt Q5QMM3 1-267)", "T1 sequence": "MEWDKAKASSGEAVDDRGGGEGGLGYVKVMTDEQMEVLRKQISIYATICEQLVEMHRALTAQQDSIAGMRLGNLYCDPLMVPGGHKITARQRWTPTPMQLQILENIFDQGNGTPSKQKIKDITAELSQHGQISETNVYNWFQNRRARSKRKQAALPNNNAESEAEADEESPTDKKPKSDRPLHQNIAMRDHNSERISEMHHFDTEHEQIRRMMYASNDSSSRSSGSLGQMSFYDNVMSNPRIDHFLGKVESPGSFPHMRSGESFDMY", "assay": "protein-binding microarray (RPBM); PBS, 2% BSA, 51.3 ng/ul salmon testes DNA, 50 uM zinc acetate, 200 nM TF, 25 C, 1 h; high values mean tight binding", "conditions": "protein: recombinant; tags: N-terminal polyhistidine and DsRed monomer fusion (pET32a); label: CyDye5-dUTP incorporated in the synthesized complementary strand; 3' TTTTT single-stranded linker to array surface; dsDNA, one strand shown", "method_in_brief": "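Transcription factors were made in E. coli BL21-CodonPlus as N-terminal fusions to a polyhistidine tag and DsRed, then purified on Ni–NTA. After primer extension with Cy5-dUTP and blocking with 2% BSA, a custom Agilent array was exposed for 1 h at 25 °C to 200 nM protein in PBS, 2% BSA, salmon testes DNA and 50 µM zinc acetate. Washed arrays were scanned on an Axon 4000B, and the binding signal is per-feature fluorescence intensity in arbitrary units.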"}
{"sequence": "ACTAGACACAGAACAGGTAAATTAAAGAGACATTCAACCTCGGAGTCACCTAGTGCAG", "binding signal": "3160 fluorescence intensity (a.u.)"}
{"sequence": "CTTTGTAGAATGATTAGATCGCGCATGGCTTTTACTTCATCGGAGTCACCTAGTGCAG", "binding signal": "6210 fluorescence intensity (a.u.)"}
{"sequence": "GAAAATCACGTGCGTAATTATGATAAGAGCAATCTCTACTCGGAGTCACCTAGTGCAG", "binding signal": "14300 fluorescence intensity (a.u.)"}
{"sequence": "TATCCCAATTAAAATGATATAATATAGATAGAGAGATATGCGGAGTCACCTAGTGCAG", "binding signal": "8240 fluorescence intensity (a.u.)"}
{"sequence": "TGGTGATTTGGGTGTTTCTTTGTTCGGAATTGCAGGGAGGCGGAGTCACCTAGTGCAG", "binding signal": "9650 fluorescence intensity (a.u.)"}
{"sequence": "AATTAATTGTAATCATCTTCTATACTAATACCAATATTTTCGGAGTCACCTAGTGCAG", "binding signal": "3730 fluorescence intensity (a.u.)"}
{"sequence": "AATATGGAGATTGAATGGTTTGATCATCCAGAAAACTCAACGGAGTCACCTAGTGCAG", "binding signal": "13200 fluorescence intensity (a.u.)"}
{"sequence": "CTGCAAACATACATTAATTGATGCATCCAGAAGAGTTAGACGGAGTCACCTAGTGCAG", "binding signal": "31200 fluorescence intensity (a.u.)"}
{"sequence": "AACAAATTGCATATGAAGGAAGGAACATGTGAAGCCTAGCCGGAGTCACCTAGTGCAG", "binding signal": "5540 fluorescence intensity (a.u.)"}
{"sequence": "TGCTAAATTTGGCTGTCAAAGCCTTCAGCACCTCGTACGTCGGAGTCACCTAGTGCAG", "binding signal": "14000 fluorescence intensity (a.u.)"}
{"sequence": "ATGTCTATCAATTTAATTGGTTTCCTGGGCTATGTTGCTGCGGAGTCACCTAGTGCAG", "binding signal": "40600 fluorescence intensity (a.u.)"}
{"sequence": "GTTCCTAATTGAAGTACCTCTTATGTTAACTTTTATTTGTCGGAGTCACCTAGTGCAG", "binding signal": "43400 fluorescence intensity (a.u.)"}
{"sequence": "CAAATTTTGTAATTAAATTGACGATAGACCTGTAGTTTTACGGAGTCACCTAGTGCAG", "binding signal": "16300 fluorescence intensity (a.u.)"}
{"sequence": "GCTATCAGTTTAACTGAAATTTAATCGTGGCAAAACAGAACGGAGTCACCTAGTGCAG", "binding signal": "7840 fluorescence intensity (a.u.)"}
{"sequence": "ACAATCAAATCACACAATGAAGATGAAGTTTCCGTTAGCACGGAGTCACCTAGTGCAG", "binding signal": "4440 fluorescence intensity (a.u.)"}
{"sequence": "TGTAACTGATTATTTCTTCAACGGTAGACGATGTATTCGACGGAGTCACCTAGTGCAG", "binding signal": "32000 fluorescence intensity (a.u.)"}
{"sequence": "TTAGACAAATGTAATTTGTTCTAGTGAGAAATTTGACCGACGGAGTCACCTAGTGCAG", "binding signal": "13200 fluorescence intensity (a.u.)"}
{"sequence": "CTAAATGCCTGATGGAGATGACTACTCATCCATGACGGGCCGGAGTCACCTAGTGCAG", "binding signal": "4670 fluorescence intensity (a.u.)"}
{"sequence": "TCAGAACAGTTGACTTTGATTGATCACCGCCCGTGACAATCGGAGTCACCTAGTGCAG", "binding signal": "33600 fluorescence intensity (a.u.)"}
{"sequence": "GGGCTCATGATTGGGGATATGGCGGTGTTGGCGAAGAATGCGGAGTCACCTAGTGCAG", "binding signal": "25600 fluorescence intensity (a.u.)"}
{"sequence": "TTTCTCTCCCTATCAATGCTCTCAATCACATACTTTGGTACGGAGTCACCTAGTGCAG", "binding signal": "7490 fluorescence intensity (a.u.)"}
{"sequence": "CTAAATTGAAATACTATATATAACGGGCTTCCTCATTTTACGGAGTCACCTAGTGCAG", "binding signal": "7350 fluorescence intensity (a.u.)"}
{"sequence": "TATCAATAAAATAATTGATGACCTGGCAGCTTAGCTTAATCGGAGTCACCTAGTGCAG", "binding signal": "14100 fluorescence intensity (a.u.)"}
{"sequence": "ATCTCCTAATTAATAAGAAGATGGTGTGTGTAAAATTAGGCGGAGTCACCTAGTGCAG", "binding signal": "11500 fluorescence intensity (a.u.)"}
{"sequence": "TGTAATTGATAAATATAAATTTACTTTAGGCATGTTTGATCGGAGTCACCTAGTGCAG", "binding signal": "55700 fluorescence intensity (a.u.)"}
{"sequence": "ATGTAATAAATTGATGGTCAAAAGGCCCTATTTGGATCCACGGAGTCACCTAGTGCAG", "binding signal": "34400 fluorescence intensity (a.u.)"}
{"sequence": "ATTTAATTTAACTCTATAATTAAGTACTACCTCTGTCCCGCGGAGTCACCTAGTGCAG", "binding signal": "35200 fluorescence intensity (a.u.)"}
{"sequence": "TGGTAGTAATATGATTGGATTTTAAATGGAGCTGCACAACCGGAGTCACCTAGTGCAG", "binding signal": "22200 fluorescence intensity (a.u.)"}
{"sequence": "TTTAATTTGTTCATTAAAGACCTAAGAGCTAATAAACGGACGGAGTCACCTAGTGCAG", "binding signal": "23100 fluorescence intensity (a.u.)"}
{"sequence": "GCAAATATTGTAAATGATTGCTCTTGTGCTAAGAAGAATACGGAGTCACCTAGTGCAG", "binding signal": "4350 fluorescence intensity (a.u.)"}
{"sequence": "TACTAGCTGATCAGAATTATAACTGAATTCAATTTTGAAACGGAGTCACCTAGTGCAG", "binding signal": "4820 fluorescence intensity (a.u.)"}
{"sequence": "ATCAGATTGTAGATTGGATAAGTAATTTGAGAGAAAACTTCGGAGTCACCTAGTGCAG", "binding signal": "18500 fluorescence intensity (a.u.)"}
{"sequence": "CAAGATAATTTTAAACAGTATTTTAAATTTCATCCGTTTTCGGAGTCACCTAGTGCAG", "binding signal": "20300 fluorescence intensity (a.u.)"}
{"sequence": "CAGGAGTAATTACTAATTAGGGACCGAGAAGTCGAAGGAGCGGAGTCACCTAGTGCAG", "binding signal": "29800 fluorescence intensity (a.u.)"}
{"sequence": "CTAAATTTTGGCTGGATTTCTTATGGATTTAATAGAGTTTCGGAGTCACCTAGTGCAG", "binding signal": "10900 fluorescence intensity (a.u.)"}
{"sequence": "GCTTAATTAGCTTGTATTTAGTTGGTTAATTTAGTGTTGTCGGAGTCACCTAGTGCAG", "binding signal": "43600 fluorescence intensity (a.u.)"}
{"sequence": "AATAATTTGATCCCATCAAATTTGTTCATGAACAACAAGACGGAGTCACCTAGTGCAG", "binding signal": "7370 fluorescence intensity (a.u.)"}
{"sequence": "TAAATAAATTAATATAGAATTATGTTGTTCATATCAGTTCCGGAGTCACCTAGTGCAG", "binding signal": "11700 fluorescence intensity (a.u.)"}
{"sequence": "CAGATGGACTGTGATAGCGAATTAGGAACAGGAGAGAAAGCGGAGTCACCTAGTGCAG", "binding signal": "7170 fluorescence intensity (a.u.)"}
{"sequence": "GCGCGGTGGTGGTGGTGGTGGTTGCTGTGGTAGCGAGGGTCGGAGTCACCTAGTGCAG", "binding signal": "3320 fluorescence intensity (a.u.)"}
{"sequence": "TAGTGATTGTCACTTCATTCGGAACCTCAATCACTTTCTGCGGAGTCACCTAGTGCAG", "binding signal": "40000 fluorescence intensity (a.u.)"}
{"sequence": "CGGTAATTAAAATAGTCACAAACAGATCTCAGCTTACCGCCGGAGTCACCTAGTGCAG", "binding signal": "25000 fluorescence intensity (a.u.)"}
{"sequence": "CATTGACAGGCATCAAGCTAGCTAGCTAGCCAACTGTCTGCGGAGTCACCTAGTGCAG", "binding signal": "30600 fluorescence intensity (a.u.)"}
{"sequence": "AATTTATGAATTTGTTATCAATCACATAAATATTACATCTCGGAGTCACCTAGTGCAG", "binding signal": "16100 fluorescence intensity (a.u.)"}
{"sequence": "CAGTGTACGTGATTTGTGGACATGCCAATCGCCACCGTCTCGGAGTCACCTAGTGCAG", "binding signal": "6460 fluorescence intensity (a.u.)"}
{"sequence": "AGCTACAAACAGCAAGTTGACAGGCTATAATAATCTCATACGGAGTCACCTAGTGCAG", "binding signal": "3170 fluorescence intensity (a.u.)"}
{"sequence": "GATAAACAGAGACAGAATTGTAATTAAGCGCGAAAATGAACGGAGTCACCTAGTGCAG", "binding signal": "22200 fluorescence intensity (a.u.)"}
{"sequence": "AGGAAATTAAGGAAGCTGCAAATTGACTCTTTTGCCCTTCCGGAGTCACCTAGTGCAG", "binding signal": "6110 fluorescence intensity (a.u.)"}
{"sequence": "GGTTAATTAAGTCTCAAGTCACGCATAGCTTAACAATGGCCGGAGTCACCTAGTGCAG", "binding signal": "40400 fluorescence intensity (a.u.)"}
{"sequence": "CCTGATTCTGATTGGCGCCAACGTACGTACTGTACATGCGCGGAGTCACCTAGTGCAG", "binding signal": "56900 fluorescence intensity (a.u.)"}
{"sequence": "AAAGAAGAGCAAGGATTGATTAGGGACGATTGAATCGGGACGGAGTCACCTAGTGCAG", "binding signal": "10500 fluorescence intensity (a.u.)"}
{"sequence": "CTATTGATTTCTGCTGCTACTTTTCTATACTGTATTTTGTCGGAGTCACCTAGTGCAG", "binding signal": "15500 fluorescence intensity (a.u.)"}
{"sequence": "TTTACGTTTCTGATTACCTAGGTATCTTGTTCTGTCTGTTCGGAGTCACCTAGTGCAG", "binding signal": "5410 fluorescence intensity (a.u.)"}
{"sequence": "CTGTGAATTGTGAATTTGTGATTGGGCTCGAACGCGGGCCCGGAGTCACCTAGTGCAG", "binding signal": "21700 fluorescence intensity (a.u.)"}
